Measured values as given in the supplement of paper PMC7826260.
The list shows a part of the results. Each Rep nickase domain was tested in vitro on the same pool of single strands at 3 µM enzyme and 37 °C for 1 h; the strands have 90 letters, of which the middle is given. A value is the log2 ratio of uncut reads to the pool without enzyme; strong cutting gives strongly negative numbers. There is no active / inactive call. Shares of all reads are compared, so uncut sequences can rise above 0 when many others are cut.

system: T1, Rep nickase domain of chickpea chlorotic dwarf virus; assay: uncleaved DNA left, log2 of reads against the no-enzyme library (log2 ratio); higher = less cleavage (more negative = more Rep cleavage of the k-mer); sequences stand for … in CTCGTCCG…ACCGGAGA
T1 sequence (protein, residues 1-124, tag omitted): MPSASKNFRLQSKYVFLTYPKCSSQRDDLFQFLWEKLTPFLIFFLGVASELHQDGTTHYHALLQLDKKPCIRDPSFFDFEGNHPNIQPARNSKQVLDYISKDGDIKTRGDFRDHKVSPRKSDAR
Procedure: (§1)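 A pool of 90-nt single-stranded DNAs with seven random bases just before the constant AC of the nick site (name = the seven bases) was cut by 3 µM recombinant His6-SUMO-tagged Rep nickase domain (300 nM DNA, 50 mM HEPES pH 8.0, 50 mM NaCl, 1 mM MnCl2, 1 h, 37 °C, three replicates). Uncut DNA was amplified and sequenced.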

Sequence	uncleaved DNA left (log2)
GGAGACT	2.1
GAGGCTG	0.885
ACGTTCC	0.22
TCGGGGC	1.13
GACCGGG	0.98
GTTGAAC	0.901
GATGATT	-1.58
CGTGATG	0.37
GCCATGC	-0.23
ACAATGT	-0.689
TGTCTAA	0.198
CACTAGT	-2.19
GGAGCCA	1.52
AGTGCCC	0.614
AAGATGT	0.878
TTGACCA	-0.000283
TGAGCTG	1.48
ATCTCAA	-0.233
GGTTCCG	-0.116
GACAAAT	0.461

Sequence	uncleaved DNA left (log2)
ATACCTA	-0.958
AAGACCC	1.35
AGATATT	-2.9
TTATCTC	-0.47
CTGTGTT	-2.39
ATGTACG	-0.0167
CCTAAAC	-0.483
ACGCACC	-0.196
AATAACC	-1.82
TAATTAT	-3.56
GTACTCC	0.6
GGGCTGA	1.96
TCGTGGC	-0.565
ACGAGGT	0.218
ATTGCTC	-1.17
CCCCATC	-0.193
GAGAATC	0.925
ATGTGCA	-0.961
TGGAGTC	0.889
CATGTGT	-0.901

system: T2, Rep nickase domain of faba bean necrotic yellows virus; assay: as above
T2 sequence (protein, residues 1-98, tag omitted): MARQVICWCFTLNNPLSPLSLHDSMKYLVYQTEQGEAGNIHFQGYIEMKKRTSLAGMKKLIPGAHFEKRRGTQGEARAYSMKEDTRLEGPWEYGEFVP
Procedure: as §1

Sequence	uncleaved DNA left (log2)
GGAGACT	0.036
GAGGCTG	-0.0319
ACGTTCC	0.0476
TCGGGGC	-0.14
GACCGGG	0.116
GTTGAAC	0.0324
GATGATT	0.0294
CGTGATG	0.118
GCCATGC	0.0827
ACAATGT	0.0138
TGTCTAA	-0.0755
CACTAGT	-0.181
GGAGCCA	0.0859
AGTGCCC	-0.135
AAGATGT	-0.139
TTGACCA	0.025
TGAGCTG	-0.0261
ATCTCAA	-0.0931
GGTTCCG	-0.0322
GACAAAT	0.173

Sequence	uncleaved DNA left (log2)
ATACCTA	0.0964
AAGACCC	0.142
AGATATT	-0.183
TTATCTC	-0.0733
CTGTGTT	-2.16
ATGTACG	0.0545
CCTAAAC	-0.0124
ACGCACC	-0.161
AATAACC	-0.0101
TAATTAT	0.169
GTACTCC	-0.0192
GGGCTGA	0.0681
TCGTGGC	0.00325
ACGAGGT	-0.0923
ATTGCTC	-0.0256
CCCCATC	-0.114
GAGAATC	-0.013
ATGTGCA	-0.0152
TGGAGTC	0.0159
CATGTGT	0.133

system: T3, Rep nickase domain of maize striate mosaic virus; assay: as above
T3 sequence (protein, residues 1-117, tag omitted): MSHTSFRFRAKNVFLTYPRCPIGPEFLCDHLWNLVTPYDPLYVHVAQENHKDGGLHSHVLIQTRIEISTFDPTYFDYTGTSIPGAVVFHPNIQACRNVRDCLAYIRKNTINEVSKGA
Procedure: as §1

Sequence	uncleaved DNA left (log2)
GGAGACT	2.34
GAGGCTG	1.73
ACGTTCC	-0.0667
TCGGGGC	1.95
GACCGGG	1.19
GTTGAAC	1.56
GATGATT	1.09
CGTGATG	0.126
GCCATGC	-0.897
ACAATGT	-0.874
TGTCTAA	0.485
CACTAGT	-0.957
GGAGCCA	1.91
AGTGCCC	0.651
AAGATGT	1.3
TTGACCA	0.427
TGAGCTG	1.77
ATCTCAA	-0.465
GGTTCCG	-0.395
GACAAAT	1.13

Sequence	uncleaved DNA left (log2)
ATACCTA	-0.229
AAGACCC	1.64
AGATATT	0.0399
TTATCTC	0.222
CTGTGTT	-0.599
ATGTACG	-0.951
CCTAAAC	-0.613
ACGCACC	-0.541
AATAACC	-0.867
TAATTAT	-3.33
GTACTCC	1.55
GGGCTGA	2.31
TCGTGGC	-0.868
ACGAGGT	-0.13
ATTGCTC	-1.13
CCCCATC	-0.866
GAGAATC	1.29
ATGTGCA	-1.19
TGGAGTC	0.727
CATGTGT	-1.03

system: T4, Rep nickase domain of porcine circovirus 2; assay: as above
T4 sequence (protein, residues 2-116, tag omitted): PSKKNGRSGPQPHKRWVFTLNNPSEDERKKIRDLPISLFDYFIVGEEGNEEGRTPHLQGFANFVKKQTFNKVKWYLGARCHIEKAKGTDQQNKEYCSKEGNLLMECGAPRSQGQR
Procedure: as §1

Sequence	uncleaved DNA left (log2)
GGAGACT	0.252
GAGGCTG	0.0177
ACGTTCC	0.0637
TCGGGGC	0.252
GACCGGG	0.251
GTTGAAC	0.108
GATGATT	-0.555
CGTGATG	0.0356
GCCATGC	0.23
ACAATGT	0.0597
TGTCTAA	0.0395
CACTAGT	-3.59
GGAGCCA	0.147
AGTGCCC	-0.128
AAGATGT	-2.13
TTGACCA	-0.0674
TGAGCTG	0.229
ATCTCAA	-0.0396
GGTTCCG	0.166
GACAAAT	-0.427

Sequence	uncleaved DNA left (log2)
ATACCTA	-0.399
AAGACCC	0.118
AGATATT	-4.37
TTATCTC	-0.0714
CTGTGTT	-3.24
ATGTACG	0.168
CCTAAAC	0.143
ACGCACC	-0.0675
AATAACC	-0.55
TAATTAT	-4.09
GTACTCC	0.0769
GGGCTGA	0.282
TCGTGGC	-0.0854
ACGAGGT	0.0701
ATTGCTC	0.0985
CCCCATC	-0.167
GAGAATC	0.0191
ATGTGCA	-0.218
TGGAGTC	0.0536
CATGTGT	-0.0282

system: T5, Rep nickase domain of tomato golden mosaic virus; assay: as above
T5 sequence (protein, residues 1-124, tag omitted): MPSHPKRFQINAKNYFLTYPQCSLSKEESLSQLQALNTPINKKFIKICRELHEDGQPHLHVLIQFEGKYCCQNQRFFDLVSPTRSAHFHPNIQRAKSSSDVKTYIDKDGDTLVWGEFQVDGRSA
Procedure: as §1

Sequence	uncleaved DNA left (log2)
GGAGACT	0.25
GAGGCTG	0.0669
ACGTTCC	0.154
TCGGGGC	0.172
GACCGGG	0.125
GTTGAAC	-0.00443
GATGATT	-0.00383
CGTGATG	0.0751
GCCATGC	0.108
ACAATGT	0.0362
TGTCTAA	-0.00689
CACTAGT	-0.00512
GGAGCCA	-0.000299
AGTGCCC	0.0482
AAGATGT	0.067
TTGACCA	0.0674
TGAGCTG	0.13
ATCTCAA	-0.0874
GGTTCCG	0.00171
GACAAAT	0.1

Sequence	uncleaved DNA left (log2)
ATACCTA	0.0255
AAGACCC	0.0631
AGATATT	-0.777
TTATCTC	-0.186
CTGTGTT	-0.361
ATGTACG	-0.0416
CCTAAAC	0.0467
ACGCACC	-0.122
AATAACC	0.00417
TAATTAT	-4.14
GTACTCC	-0.122
GGGCTGA	0.122
TCGTGGC	-0.165
ACGAGGT	0.0385
ATTGCTC	-0.127
CCCCATC	-0.0538
GAGAATC	-0.0388
ATGTGCA	-0.00616
TGGAGTC	-0.0251
CATGTGT	-0.0399
